In PubChem BioAssay AID1347428 (National Center for Advancing Translational Sciences (NCATS), 2020):
In all, about 91,000 compounds went through this assay and about 290 (0.32%) were called active. The inconclusive results got no clear call from the source; some entries with a clear call stand among them for comparison. Calls come from the whole dose curve; as a rule, active = well fitted inhibition curve with a large enough effect; inconclusive = small, poorly fitted or top-dose-only effect; inactive = no such curve, though single readings can be large or run the other way. Potencies of inconclusive entries are doubtful fits and often do not repeat.

Target: Single-stranded DNA cytosine deaminase (Homo sapiens) (UniProt Q9GZX7)
Sequence of UniProt Q9GZX7 (Q9GZX7 whole entry, looked up): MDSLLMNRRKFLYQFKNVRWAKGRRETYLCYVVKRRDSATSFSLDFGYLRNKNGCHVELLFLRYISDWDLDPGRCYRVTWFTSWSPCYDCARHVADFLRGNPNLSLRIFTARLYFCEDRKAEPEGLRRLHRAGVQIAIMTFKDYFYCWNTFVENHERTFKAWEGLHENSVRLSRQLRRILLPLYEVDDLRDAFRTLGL
Test: Primary qHTS assay for inhibitors of Activation Induced Cytidine Deaminase (AID): AID signal; note: nearly all actives have a fitted effect of over 25% in size
Settings: AID deamination FRET fluorescence, UDG-coupled, 4 h; series mostly up to 115 µM
Potency is the fitted concentration of half-maximal effect; tags give direction and shape of the fitted curve.

Row | SMILES | Potency
1 | CCOc1ccc(/C(O)=C2\C(=O)C(=O)NC2c2ccc(Cl)cc2)cc1 (centres undefined) | inactive
2 | COc1cccc(-c2nn(C)c3sc(C(=O)N4CCN(c5cccc(C)c5)C(C)C4)cc23)c1 (centres undefined) | active: 39.8 µM
3 | Cc1cccc(N(CC(=O)NCCSc2ccc(Cl)cc2)S(=O)(=O)c2ccccc2)c1C | inconclusive: 28.2 µM [inhibitor, partial curve, poor fit]
4 | CCCCOC(=O)c1ccc(NC(=O)Cc2coc3ccc(C(C)C)cc23)cc1 | inconclusive: 20 µM [inhibitor, full curve]
5 | Cc1nc(SCC(=O)Nc2ccc(Br)cc2)[nH]c(=O)c1Cc1ccccc1 | inconclusive: 79.4 µM [inhibitor, single point]
6 | Cc1ccccc1NC(=O)Cn1nc(-c2ccc(F)cc2)c2cnc3ccccc3c21 | inconclusive: 89.1 µM [inhibitor, single point]
7 | CN1CCN(CCCN2c3ccccc3Sc3ccc(C(F)(F)F)cc32)CC1 | inconclusive: 56.2 µM [inhibitor, partial curve, poor fit]
8 | Cc1ccc(Cl)cc1N1CCN(CCNC(=O)Nc2ccc(Cl)cc2)CC1 | inactive
9 | COc1ccc(N(C(=O)c2cccc(C)c2)S(=O)(=O)c2ccc(Cl)cc2)cc1 | inactive
10 | CC#CC[N+](C)(C)CCCCCCCCCCCC | inconclusive: 56.2 µM [inhibitor, partial curve, poor fit]
11 | CCOc1ccc(CNS(=O)(=O)c2ccc(-c3coc(C)n3)cc2)cc1 | inactive
12 | CCOc1ccccc1NC(=O)Cc1noc2ccc(C)cc12 | inconclusive: 89.1 µM [inhibitor, single point]
13 | COc1ccc(C(=O)Oc2cc(C)ccc2Cl)cc1OC | inactive
14 | COc1ccc(NC(=O)c2c(NC(=O)c3ccc(Br)cc3)sc3c2CCCC3)cc1 | inconclusive: 50.1 µM [inhibitor, partial curve, poor fit]
15 | COc1cccc(/C=C(/C#N)C(=O)c2ccccc2)c1OC(F)F | inactive
16 | Cc1ccc(Cl)cc1N(C)C(=O)c1cn(C2CCCCC2)c(=O)c2c1c1ccccc1n2C | inconclusive: 17.8 µM [inhibitor, full curve, poor fit]
17 | CC(C)(C)C(=O)NCc1cccc(Oc2ccccc2)c1 | inactive
18 | CCOC(=O)Nc1cccc(N2CCn3c(nc4ccccc43)C2)c1 | inactive
19 | Cc1ccc(CNC(=O)c2ccc(CSCc3ccccc3C)o2)cc1 | inconclusive: 22.4 µM [inhibitor, partial curve, poor fit]
20 | COc1ccc(Nc2ncc(C(=O)N3CCN(c4ccc(F)cc4)CC3)c3ccccc23)cc1 | inconclusive: 25.1 µM [inhibitor, full curve]
21 | CC(CC(=O)O)c1c[nH]c2ccccc12 (centres undefined) | inconclusive: 89.1 µM [inhibitor, partial curve, poor fit]
22 | CCOc1ccc(N(CC)S(=O)(=O)N2CCCC(C(=O)Nc3cc(Cl)ccc3OC)C2)cc1 (centres undefined) | inconclusive: 39.8 µM [inhibitor, partial curve, poor fit]

Row | SMILES | Potency
23 | COc1ccc(C)cc1N(C)C(=O)c1c2c(nc3ccccc13)C(=O)N(C1CCCCC1)C2 | inconclusive: 39.8 µM [inhibitor, partial curve, poor fit]
24 | COc1ccccc1/C=C/c1nc(C#N)c(NCCc2ccccc2)o1 | inconclusive: 28.2 µM [inhibitor, full curve, poor fit]
25 | CCCCN1C(C(=O)c2ccccc2)=C(OC(C)=O)c2ccccc2S1(=O)=O | inconclusive: 50.1 µM [inhibitor, partial curve, poor fit]
26 | COc1ccc(NC(=O)c2cnc(SC)nc2C)cc1OC | inactive
27 | CC1(C)C2CCC1(C)C(OCC[N+](C)(C)Cc1ccccc1)C2 (centres undefined) | inconclusive: 79.4 µM [inhibitor, partial curve, poor fit]
28 | Cc1ccccc1Cc1c(C)nc2nc(SCC(=O)NCCc3ccc(Cl)cc3)nn2c1C | inconclusive: 56.2 µM [inhibitor, partial curve, poor fit]
29 | COc1ccc2cc([C@H](C)C(=O)NCCc3cccs3)ccc2c1 | inactive
30 | Cc1cc(C)c(C)c(SC(C(N)=O)c2ccccc2)c1C (centres undefined) | inactive
31 | O=C(Nc1ccc(F)cc1F)c1ccc2c(O)c(S(=O)(=O)c3ccc(Cl)cc3)c(=O)[nH]c2c1 | inconclusive: 56.2 µM [inhibitor, partial curve, poor fit]
32 | COc1cc(NC(=O)CSc2nc3nc(C)c(Cc4ccc(C)cc4)c(C)n3n2)cc(OC)c1OC | inconclusive: 50.1 µM [inhibitor, partial curve, poor fit]
33 | Cc1c(NC(=O)C(C)(C)Oc2ccc(Cl)cc2)cccc1-c1nc2ncccc2o1 | inconclusive: 56.2 µM [inhibitor, partial curve, poor fit]
34 | COc1ccc2c(c1)c(=O)c(S(=O)(=O)c1ccc(C)cc1)cn2Cc1ccccc1C | inconclusive: 39.8 µM [inhibitor, partial curve, poor fit]
35 | Cc1n[nH]c(C)c1Cl | inactive
36 | CCN(CCCNC(=O)CSc1cc(=O)n(CC)c2ccccc12)c1cccc(C)c1 | inconclusive: 50.1 µM [inhibitor, partial curve, poor fit]
37 | CC(Sc1cn(CCNC(=O)c2ccccc2F)c2ccccc12)c1ccccc1 (centres undefined) | inconclusive: 3.16 µM [inhibitor, full curve, poor fit]
38 | CCC(C(=O)Nc1ccccc1OC)n1nc(C)c2sc3ccccc3c2c1=O (centres undefined) | inconclusive: 12.6 µM [inhibitor, full curve, poor fit]
39 | Cc1ccccc1C(=O)/C=C/c1cc2ccccc2nc1N1CCOCC1 | inconclusive: 35.5 µM [inhibitor, partial curve, poor fit]
40 | O=C(/C=C/Nc1cc(C(F)(F)F)cc(C(F)(F)F)c1)c1ccc(Cl)cc1Cl | inactive
41 | COC(=O)c1c(C)[nH]c(C(=O)C(C)OC(=O)c2cccc(Cl)c2Cl)c1C (centres undefined) | inactive
42 | COc1ccc(CNCCC(c2ccccc2)c2ccc3c(c2)OCO3)cc1 (centres undefined) | active: 44.7 µM
43 | CC1Cc2cc(S(=O)(=O)NCCc3ccccc3)ccc2N1C(=O)C1CCC1 (centres undefined) | inconclusive: 39.8 µM [inhibitor, single point]
44 | Cc1ccc2c(c1)N(C(=O)Nc1cccc(C)c1C)CCO2 | inconclusive: 25.1 µM [inhibitor, full curve, poor fit]

Row | SMILES | Potency
45 | COc1ccc(C)cc1NC(=O)C(Sc1nnnn1C1CCCC1)c1ccccc1 (centres undefined) | inactive
46 | COc1ccccc1CNC(=O)CCC1N=C2c3ccccc3N=C(SCc3ccc(C)cc3)N2C1=O (centres undefined) | inconclusive: 31.6 µM [inhibitor, partial curve, poor fit]
47 | Cc1cc2nc(SCC(=O)Nc3ccc(F)c(Cl)c3)[nH]c(=O)c2[nH]1 | inactive
48 | Cc1nc2scc(C)n2c(=O)c1S(=O)(=O)N1CCN(c2cccc(C(F)(F)F)c2)CC1 | inconclusive: 89.1 µM [inhibitor, partial curve, poor fit]
49 | CCN(CC)S(=O)(=O)c1cc(C)c(C)c(NS(=O)(=O)/C=C/c2ccccc2)c1 | inactive
50 | O=C(C1CCCN(S(=O)(=O)c2cccc3nsnc23)C1)N1CCN(c2ccccc2Cl)CC1 (centres undefined) | inconclusive: 31.6 µM [inhibitor, full curve]
51 | CCC(=O)N1CCc2cc(S(=O)(=O)NC(Cc3ccccc3)C(=O)Nc3cccc(OC)c3)ccc21 (centres undefined) | inconclusive: 100 µM [inhibitor, single point]
52 | COc1ccc(C2C=C(c3ccccc3)Nc3nc(NS(=O)(=O)c4ccc(Cl)cc4)nn32)cc1 (centres undefined) | inconclusive: 56.2 µM [inhibitor, partial curve, poor fit]
53 | COc1ccc(OC)c(NC(=O)/C=C/c2ccc(C)o2)c1 | inconclusive: 25.1 µM [inhibitor, partial curve, poor fit]
54 | CCc1ccccc1N(C)C(=O)c1cc2c(=O)oc3ccccc3c2s1 | inconclusive: 79.4 µM [inhibitor, partial curve, poor fit]
55 | Cc1ccc(C)c(CN2C(=O)c3ccccc3S(=O)(=O)c3ccc(C(=O)N4CCCCC4)cc32)c1 | inconclusive: 89.1 µM [inhibitor, partial curve, poor fit]
56 | CCOc1ccc(CCNC(=O)c2cc3c(-c4ccc(OC)c(OC)c4)nn(C)c3s2)cc1OCC | inconclusive: 22.4 µM [inhibitor, full curve]
57 | Cc1ccc(N2C(=O)CSC23C(=O)N(CC(=O)Nc2ccc(C(C)C)cc2)c2ccccc23)cc1C (centres undefined) | inconclusive: 17.8 µM [inhibitor, full curve, poor fit]
58 | O=c1c2ccccc2c(-c2cccs2)nn1CC(O)COCc1ccccc1F (centres undefined) | inactive
59 | Cc1cc(Oc2cc(C#N)c(C#N)cc2Oc2cc(C)c(Cl)c(C)c2)cc(C)c1Cl | inactive
60 | CCc1ccc(OCC2c3cc(OC)c(OC)cc3CCN2C(=O)COc2ccccc2)cc1 (centres undefined) | inconclusive: 14.1 µM [inhibitor, full curve, poor fit]
61 | CC(C)(C)OC(=O)N1CCC(c2c(C(=O)NCCN3CCC(Cc4ccccc4)CC3)cnn2-c2ccc(F)cc2)CC1 | inconclusive: 56.2 µM [inhibitor, partial curve, poor fit]
62 | Cc1cccc(N2CCN(S(=O)(=O)c3cc(C(=O)Nc4ccccc4Cl)ccc3F)CC2)c1C | inconclusive: 15.8 µM [inhibitor, full curve, poor fit]
63 | N#Cc1ncn(CCC(=O)Nc2ccc(F)c(F)c2)n1 | active: 14.1 µM
64 | O=C1CCSC2(C(=O)N(Cc3ccc(F)cc3)c3ccccc32)N1c1ccc(F)c(F)c1 (centres undefined) | inconclusive: 79.4 µM [inhibitor, partial curve, poor fit]
